According to paper PMC4336329 (PLoS ONE, 2015):
Screen size: about 310,000 compounds; about 2,200 (0.71%) showed an effect of 50% or more. The effect is printed as a negative number. This is one part of the list.

biological target: human ether-à-go-go-related gene (hERG) potassium channel (human, UniProt Q12809); assay: primary screen, population patch clamp on CHO cells stably expressing hERG
Sequence (Q12809 whole entry, looked up): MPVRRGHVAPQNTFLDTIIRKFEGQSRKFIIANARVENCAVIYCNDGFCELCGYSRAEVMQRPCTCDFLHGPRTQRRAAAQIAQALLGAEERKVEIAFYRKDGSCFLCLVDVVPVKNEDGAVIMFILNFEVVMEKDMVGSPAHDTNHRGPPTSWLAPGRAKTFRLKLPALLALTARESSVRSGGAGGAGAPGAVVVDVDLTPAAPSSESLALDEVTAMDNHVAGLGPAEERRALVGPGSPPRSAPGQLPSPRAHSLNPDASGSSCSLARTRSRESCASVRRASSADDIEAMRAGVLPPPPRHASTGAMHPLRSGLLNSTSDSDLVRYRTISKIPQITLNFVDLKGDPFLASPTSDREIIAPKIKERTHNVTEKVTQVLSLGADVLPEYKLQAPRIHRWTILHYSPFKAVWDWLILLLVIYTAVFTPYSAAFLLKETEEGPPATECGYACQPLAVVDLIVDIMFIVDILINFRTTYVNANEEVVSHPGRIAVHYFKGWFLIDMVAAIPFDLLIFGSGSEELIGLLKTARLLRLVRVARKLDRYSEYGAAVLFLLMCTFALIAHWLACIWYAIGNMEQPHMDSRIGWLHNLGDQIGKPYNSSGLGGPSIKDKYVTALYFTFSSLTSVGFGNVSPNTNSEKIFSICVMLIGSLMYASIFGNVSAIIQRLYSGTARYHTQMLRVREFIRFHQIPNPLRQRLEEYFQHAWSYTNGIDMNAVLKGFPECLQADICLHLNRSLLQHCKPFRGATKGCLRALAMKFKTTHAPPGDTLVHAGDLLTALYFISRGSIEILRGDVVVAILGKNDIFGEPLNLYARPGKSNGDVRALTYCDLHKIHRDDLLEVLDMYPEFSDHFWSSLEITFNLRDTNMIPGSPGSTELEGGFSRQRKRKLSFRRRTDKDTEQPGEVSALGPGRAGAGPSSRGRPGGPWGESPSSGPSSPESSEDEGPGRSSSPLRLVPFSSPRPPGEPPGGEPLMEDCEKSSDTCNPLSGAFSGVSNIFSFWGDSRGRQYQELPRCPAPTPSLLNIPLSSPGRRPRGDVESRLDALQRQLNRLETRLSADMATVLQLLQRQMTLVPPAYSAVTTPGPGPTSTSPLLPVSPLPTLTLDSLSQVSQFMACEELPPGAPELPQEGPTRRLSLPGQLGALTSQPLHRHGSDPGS

Row | SMILES | hERG current change (%, negative = inhibition) at 1uM [%]
1 | Cc1ccc(C(=O)NCCc2nnc3ccc(SCC(=O)Nc4cc(C)on4)nn23)cc1 | 8.91
2 | COc1cc(C(=O)NCC(c2ccco2)N2CCc3ccccc32)cc(OC)c1OC (centres unmarked) | 5
3 | CN(C)c1ccc(NC(=O)C(=O)NCCOc2ccccc2)cc1 | 11.8
4 | O=C1CSC(=Nc2cc(Cl)ccc2Cl)N1 | 2.55
5 | CCOc1ccc(-n2c(SCC(N)=O)nc3sc4c(c3c2=O)CCN(C)C4)cc1 | 14
6 | CC(=O)c1cccc(NC(=O)COC(=O)c2ccc3c(c2)OCO3)c1 | 12.8
7 | COC(=O)c1cncc(C)c1 | 7.18
8 | COc1ccc(NC(=O)Cn2nc(Cc3cccnc3)c3ccccc3c2=O)cc1OC | 3.13
9 | NC(=O)c1ccccc1OCc1nnc(-c2ccccc2Br)o1 | 6.59
10 | Cc1ccccc1C(=O)Nc1ccc(N(C)C)c2ccccc12 | 5.3
11 | O=C(CN1C(=O)C2C3c4ccccc4C(c4ccccc43)C2C1=O)Nc1cccc(C(=O)O)c1 (centres unmarked) | -0.218
12 | O=[N+]([O-])c1cccc(/C=N/Nc2nnc(-c3ccccc3)c(-c3ccccc3)n2)c1 | 9.39
13 | O=C(CSc1nnc(-c2ccccn2)n1-c1ccccc1)Nc1ccc2c(c1)OCO2 | 10.2
14 | CC1CCc2c(nc3ncnn3c2N2CCN(c3ccccc3F)CC2)C1 (centres unmarked) | -4.64
15 | CC(C(=O)N1CCc2ccccc2C1)N(c1ccccc1)S(C)(=O)=O (centres unmarked) | 11.6
16 | O=C1CCCC(O)=C1N=Nc1cccc(C(=O)O)c1 | 4.8
17 | Fc1ccc(-n2c(=S)[nH]c3cccnc32)cc1 | 17.8
18 | COc1ccc2c(c1)C1(Nc3ccccc3-c3nc4ccccc4n31)C(=O)N2 (centres unmarked) | 1.05
19 | CC(C)c1ccc(CN(C)CC(O)c2ccccc2)cc1.O=C(O)C(=O)O (centres unmarked) | 2.85
20 | COc1cccc(/C=N/NC(=O)C(=O)N2CCCC2)c1 | -0.775
21 | Cc1cc2c(C)cc(=O)oc2c2c1NCCC2 | -0.317
22 | Cc1c(-c2ccccc2)n[nH]c1C(=O)NN | 8.85
23 | COc1cccc(/C=C/C(=O)OCC(=O)N(C)CC(=O)Nc2ccccc2Cl)c1OC | 3.61

Row | SMILES | hERG current change (%, negative = inhibition) at 1uM [%]
24 | CC/C(=N\NC(=O)CNC(=O)/C=C/c1ccc(OC)cc1)c1ccccc1 | 14.8
25 | CN(Cc1ccon1)C(=O)CC1C(=O)NCCN1Cc1ccc(Cl)c(F)c1 (centres unmarked) | 5.43
26 | O=C(N/N=C/c1ccccc1)c1ccco1 | 9.48
27 | CCOc1cc(/C=C2/NC(=O)NC2=O)cc([N+](=O)[O-])c1O | 15.7
28 | Cc1occc1C(=O)Nc1ccc(S(N)(=O)=O)cc1 | 6.89
29 | CCN(CC)S(=O)(=O)c1cc(C(=O)NC2CCCCC2)ccc1C | -7.75
30 | Cc1ccc(-c2noc(CN(C(=O)CCN3C(=O)c4ccccc4C3=O)C(C)C)n2)cc1 | -3.67
31 | CC1(c2ccccc2)NC(=O)N(CC(=O)Nc2nnc(C3CC3)s2)C1=O (centres unmarked) | 13.5
32 | COc1cc(/C=N/NC(=S)Nc2cccc(Cl)c2C)ccc1OCC(=O)N1CC(C)OC(C)C1 (centres unmarked) | -0.501
33 | Cc1cc(N2CCOCC2)c2c(N)c(C)cc(C)c2n1 | -13.2
34 | COc1ccc(-c2oc3cc(O)c(OC)c(O)c3c(=O)c2OC)cc1 | 4.26
35 | CCn1c(SCC(=O)Nc2nc(-c3ccc(C)cc3)cs2)nnc1-c1ccccc1O | 16.5
36 | NC(=O)CC(NC(=O)Cc1ccc(Cl)cc1)c1ccc(NCCCN2CCCC2=O)c([N+](=O)[O-])c1 (centres unmarked) | 4.71
37 | COC(=O)c1ccc(Cn2cnc3c(sc4nc(N5CCOCC5)c5c(c43)CCCC5)c2=O)o1 | 12.1
38 | Cc1ccc(/C=C/C(=O)NCc2ccccn2)o1 | -2.26
39 | NC(=O)c1nn(-c2cccc(Cl)c2)c(=O)cc1O | 0.296
40 | Cc1cc(C)c(C#N)c(SC2CCCCC2=O)n1 (centres unmarked) | 4.04
41 | CC(Sc1nnc(C2CC2)n1C1CC1)C(=O)Nc1ccc(C(N)=O)cc1 (centres unmarked) | -2.36
42 | O=C1c2ccccc2-c2nccnc21 | -15.3
43 | COc1cccc(C2CC(c3ccccc3Cl)Nc3nc(N)nn32)c1 (centres unmarked) | 10.6
44 | O=C(CN1CC(=O)Oc2ccccc21)OCC(=O)c1ccc(F)cc1 | 9.67
45 | COC(=O)C1=C(C)Nc2c(c(=O)n(C)c(=O)n2C)C1c1cccs1 (centres unmarked) | 11.7
46 | O=C(COC(=O)c1ccccc1)NCc1ccco1 | 15.4

Row | SMILES | hERG current change (%, negative = inhibition) at 1uM [%]
47 | COc1ccc(C2=NN(C(=O)CSc3nnnn3C)C(c3ccco3)C2)cc1 (centres unmarked) | 3.72
48 | COc1ccc(-c2c(NC(=O)c3ccco3)n(-c3ccccc3)nc(C)c2=O)cc1 | 12.3
49 | CCNC(=O)CCSc1nc2cc(Cl)ccc2o1 | 13.3
50 | COc1ccc(N(C(=O)/C=C/c2ccccc2)C2=CC3CCC(C2)N3C)cc1.Cl (centres unmarked) | -70.3
51 | COc1ccccc1C(=O)NCCC(=O)N(C)CC(=O)Nc1ccc(C)cc1 | 15.5
52 | O=C(COC(=O)c1ccc([N+](=O)[O-])s1)Nc1ncc(C(F)(F)F)cc1Cl | -5.92
53 | O=C(Cn1nnc(-c2ccccc2)n1)NC1CCS(=O)(=O)C1 (centres unmarked) | 10.9
54 | CCOc1ccc(CNc2nc3ccccc3n2CCN2CCOCC2)cc1.Cl | -28
55 | COc1ccc(NS(=O)(=O)c2ccc(C)c(C(=O)N(C)CCc3ccc(OC)c(OC)c3)c2)cc1 | 3.86
56 | N#C/C(=C/c1ccc(F)cc1)c1nnc(NC(=O)c2ccccc2)s1 | 13.8
57 | C=CCn1c(Cc2cccs2)nnc1SCC(=O)NC1CC1 | 9.64
58 | COc1ccc(OC)c(C(C)NC(=O)C(C)n2cc([N+](=O)[O-])cn2)c1 (centres unmarked) | 11.4
59 | COCC(C)n1c(C)cc(C(=O)COC(=O)C2=NN(c3ccccc3)C(=O)CC2)c1C (centres unmarked) | 8.28
60 | COc1ccc(C)cc1NC(=O)NNC(=O)c1cc2ccccc2cc1O | 10.7
61 | COc1cc(/C=N/NC(=O)CC#N)cc(Br)c1O | 11.7
62 | O=C(NCCOc1ccccc1)c1cc(C(=O)NCCOc2ccccc2)cc([N+](=O)[O-])c1 | 0.812
63 | CC(C)(C)N=C1NC(=NC(C)(C)C)c2ccccc21 | -3.75
64 | Cc1cc(Br)ccc1NC(=O)CNC(=O)Cn1ncc(Cl)c(Cl)c1=O | 1.06
65 | CC(=O)N1CCN(S(=O)(=O)c2cccc(C(=O)NNC(=O)Cn3ccc(C(F)(F)F)n3)c2)CC1 | 8.08
66 | CCC1(c2ccc(F)cc2)NC(=O)N(CC(=O)NC2CC2)C1=O (centres unmarked) | 22.5
67 | COc1ccc2c(c1)[nH]c1c(=O)n(CC3CCCO3)cnc12 (centres unmarked) | 14.6
68 | CCc1ccccc1NC(=O)CN(C)C(=O)c1cccc(S(=O)(=O)N2CCCCCC2)c1 | -5.75
69 | CNCCCCOc1ccccc1-c1ccccc1.O=C(O)C(=O)O | 10.4

Row | SMILES | hERG current change (%, negative = inhibition) at 1uM [%]
70 | COc1cccc(CC(=O)NCCCSc2ccccc2)c1 | 1.79
71 | COc1ccc(OC)c2[nH]c(C(=O)N/N=C/c3ccccc3O)cc12 | 7.41
72 | COc1ccc(N(CC(=O)Nc2ccccc2C(N)=O)S(=O)(=O)c2ccc(C)c([N+](=O)[O-])c2)cc1 | -2.85
73 | COc1ccc(C(=O)NCC(=O)N/N=C/c2c(C)[nH]c3ccccc23)cc1 | 5.8
74 | Cc1cc(C)cc(N(C(=O)c2csnn2)C(C(=O)NC(C)(C)C)c2ccncc2)c1 (centres unmarked) | 1.11
75 | Cc1ccsc1C1C=C(c2cccc(Br)c2)Nc2ncnn21 (centres unmarked) | 6.19
76 | CCOC(=O)N1CCN(CC(=O)Nc2cccc(Br)c2)CC1 | -2.11
77 | CC(C)(C)Nc1nc(Cl)nc(NC2CCCCC2)n1 | 4.81
78 | COC(=O)c1ccc(C(=O)OC)c(NC(=O)CSCc2ccc(Br)cc2)c1 | 14.3
79 | O=C(NN=C1CCCCCC1)c1cccnc1 | 10.3
80 | Cc1cc(C)c2c(CN3CCN(Cc4ccc5c(c4)OCO5)CC3)cc(=O)oc2c1 | -50.3
81 | CNC(=S)N/N=C(\C)c1ccccc1 | 0.358
82 | CC(C)NC(=S)N/N=C1\CCCCC1C1CCCCC1 (centres unmarked) | 12.7
83 | CCC1(CC)C(=O)N(C)C(=O)NC1=NC | 13.1
84 | CC1(C)Oc2ccc3ccc(=O)oc3c2[C@H](O)[C@H]1O | 13.2
85 | COc1cccc2cc(C(=O)NCCC3=CCCCC3)c(=O)oc12 | 1.32
86 | CC(OC(=O)c1cc2sccc2n1C)C(=O)NC(C)(C)C (centres unmarked) | 5.63
87 | O=C(Nc1ccc(Br)cc1)C1OCCc2ccccc21 (centres unmarked) | 5.36
88 | S=C(Nc1ccc(Oc2ccccc2)cc1)NC1CCCCC1 | 13.7
89 | O=c1ccc(-c2ccccc2)nn1Cc1ccc(F)cc1 | 2.57
